Source: patent US20240384006A1 (Amgen, published 2024)
Residue numbers refer to the chain shown, from its start. Numbers in names are those of the source.

T1: human CD20 (human, UniProt P11836 1-297)
T1 sequence (looked up): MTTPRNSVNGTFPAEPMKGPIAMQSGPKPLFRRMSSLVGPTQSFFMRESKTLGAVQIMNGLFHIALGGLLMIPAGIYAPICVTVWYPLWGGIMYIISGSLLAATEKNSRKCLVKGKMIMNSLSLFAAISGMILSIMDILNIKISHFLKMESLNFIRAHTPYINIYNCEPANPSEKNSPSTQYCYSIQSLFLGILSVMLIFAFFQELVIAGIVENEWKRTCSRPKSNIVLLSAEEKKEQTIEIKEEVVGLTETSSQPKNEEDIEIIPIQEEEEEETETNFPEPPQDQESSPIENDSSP

T2: human CD22 (human, UniProt P20273 20-847)
T2 sequence (looked up): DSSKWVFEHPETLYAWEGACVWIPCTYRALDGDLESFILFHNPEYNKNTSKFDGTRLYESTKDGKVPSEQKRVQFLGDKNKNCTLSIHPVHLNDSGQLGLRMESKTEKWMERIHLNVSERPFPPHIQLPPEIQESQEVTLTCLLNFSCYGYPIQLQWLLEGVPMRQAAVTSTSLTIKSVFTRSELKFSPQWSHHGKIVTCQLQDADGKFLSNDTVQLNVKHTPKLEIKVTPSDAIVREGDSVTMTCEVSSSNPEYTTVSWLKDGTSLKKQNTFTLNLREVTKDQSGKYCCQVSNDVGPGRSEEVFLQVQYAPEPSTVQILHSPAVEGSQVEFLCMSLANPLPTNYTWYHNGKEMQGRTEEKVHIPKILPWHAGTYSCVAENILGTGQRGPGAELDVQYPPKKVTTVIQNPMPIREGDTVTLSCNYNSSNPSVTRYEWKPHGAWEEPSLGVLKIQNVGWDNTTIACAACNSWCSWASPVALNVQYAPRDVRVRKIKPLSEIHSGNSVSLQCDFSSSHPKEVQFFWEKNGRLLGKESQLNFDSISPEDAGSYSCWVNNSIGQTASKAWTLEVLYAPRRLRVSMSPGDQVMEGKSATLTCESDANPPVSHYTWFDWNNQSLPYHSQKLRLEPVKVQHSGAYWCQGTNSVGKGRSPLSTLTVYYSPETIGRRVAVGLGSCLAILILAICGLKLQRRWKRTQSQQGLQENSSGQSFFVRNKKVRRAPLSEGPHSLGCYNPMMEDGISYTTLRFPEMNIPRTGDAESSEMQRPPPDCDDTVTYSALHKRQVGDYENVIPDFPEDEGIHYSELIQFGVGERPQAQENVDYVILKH

T3: cyno CD20 (cyno, UniProt M4ZHZ6 1-297)
T3 construct: whole, on cells; also called cy CD20
T3 sequence: T1 sequence (looked up) with S25P, F31L, T51A, A157V, K217R, N226S, I227V, T239V

B1: CD20 82-G2 CC × CD22 53-D6 CC × I2E × scFc (F9P) (bispecific antibody)
chain: EVQLVESGGGLVQPGRSLRLSCAASGFTFHDYTMHWVRQAPGKCLEWVSGISWNTGTIGYADSVKGRFTISRDNAKNSLYLQMNSLRAEDTALYYCVKDAFYGGDYYYNYGMDVWGHGTTVTVSSGGGGSGGGGSGGGGSEIVLTQSPATLSVSPGERATLSCRASQSVNNNLAWYQQKPGQAPRLLIYGASTRATGIPARFSGSGSGTDFTLTISSLQSDDFAVYYCQQYNNWPLTFGCGTKVEIKSGGGGSQVQLVQSGAEVKKPGASVKVSCKASGYSFTSYGITWVRQAPGQCLEWMGWISAYNGNTIYAQKLQGRVTMTTDTSTSTAYMELRSLRSDDTAVYYCVRDSNHEDFWGQGTLVTVSSGGGGSGGGGSGGGGSEIVLTQSPATLSVSPGERATLSCRASQSVSSNLAWYQQKPGQAPRLLIYGASTRATGIPARFSGSGSGTEFTLTISSLQSEDFAVYYCQQYHTWPPVTFGCGTKVEIKSGGGGSEVQLVESGGGLVQPGGSLKLSCAASGFTFNKYAINWVRQAPGKGLEWVARIRSKYNNYATYYADAVKDRFTISRDDSKNTVYLQMNNLKTEDTAVYYCARAGNFGSSYISYWAYWGQGTLVTVSSGGGGSGGGGSGGGGSQTVVTQEPSLTVSPGGTVTIT[in this place about 80 residues]FGSGTKLTVLGGGG[in this place human IgG1 Fc with R292C N297G V302C (EU numbers)]GGGGSGGGGSGGGGSGGGGSGGGGSGGGGS[in this place human IgG1 Fc with R292C N297G V302C (EU numbers)]
notes: Single chain: anti-CD20 scFv, anti-CD22 scFv, anti-CD3 scFv (I2E), scFc
B2: CD20 82-A3 CC × CD22 53-G9 CC × I2E × scFc (L4L) (bispecific antibody)
chain: EVQLVESGGGLVQPDRSLRLSCAASGFTFRDYAMHWVRQAPGKCLEWVSGIAWNSDSIGYADSVKGRFTISRDNAKNSLFLQMHSLRPEDTALYFCAKDTLYGSGSPRAFDIWGQGTMVTVSSGGGGSGGGGSGGGGSEIVLTQSPATLSVSPGERATLSCRASQSVNNNLAWYQQKPGQAPRLLIYGASTRATGIPARFSGSGSGTEFTLTISRLEPEDFAVYYCQQSNNWPITFGCGTRLEIKSGGGGSQVQLVQSGAEVKKPGESLKISCKGSGYSFTSYGISWVRQAPGQCLEWMGWISAYNGNTIYAQKLQGRVTMTTDTSTSTAYMELRRLRSDDTAVYYCARDPGVTGDDYWGQGTLVTVSSGGGGSGGGGSGGGGSEIVLTQSPATLSVSPGERATLSCRASLSVSSNLAWYQQKPGQAPRLLIYGASTRATGIPARFSGSGSGTEFTLTISSLQSEDFAVYFCQQYHSWPALTFGCGTKVEIKSGGGGSEVQLVESGGGLVQPGGSLKLSCAASGFTFNKYAINWVRQAPGKGLEWVARIRSKYNNYATYYADAVKDRFTISRDDSKNTVYLQMNNLKTEDTAVYYCARAGNFGSSYISYWAYWGQGTLVTVSSGGGGSGGGGSGGGGSQTVVTQEPSLTVSPGGTVTIT[in this place about 80 residues]FGSGTKLTVLGGGG[in this place human IgG1 Fc with R292C N297G V302C (EU numbers)]GGGGSGGGGSGGGGSGGGGSGGGGSGGGGS[in this place human IgG1 Fc with R292C N297G V302C (EU numbers)]
notes: as for B1
B3: CD20 82-D2 CC × CD22 53-G9 CC × I2E × scFc (Z1W) (bispecific antibody)
chain: EVQLLESGGGLVQPGGSLRLSCAASGFTFSGHAMTWVRQAPGKCLEWLSTIYGSGGYTYYAGSVKGRFTISRDNSKNTLYLQMNSLRAEDTAVYYCAKVGGYDWYFDLWGRGTLVTVSSGGGGSGGGGSGGGGSSYELTQPPSVSVALGQTARITCGGHNIGSKNVHWYQQKPGQAPVLVIYRDTNRPSGIPERFSGSNSGNTATLTISRAQAGDEADYYCQLWDSTTVVFGCGTKLTVLSGGGGSQVQLVQSGAEVKKPGESLKISCKGSGYSFTSYGISWVRQAPGQCLEWMGWISAYNGNTIYAQKLQGRVTMTTDTSTSTAYMELRRLRSDDTAVYYCARDPGVTGDDYWGQGTLVTVSSGGGGSGGGGSGGGGSEIVLTQSPATLSVSPGERATLSCRASLSVSSNLAWYQQKPGQAPRLLIYGASTRATGIPARFSGSGSGTEFTLTISSLQSEDFAVYFCQQYHSWPALTFGCGTKVEIKSGGGGSEVQLVESGGGLVQPGGSLKLSCAASGFTFNKYAINWVRQAPGKGLEWVARIRSKYNNYATYYADAVKDRFTISRDDSKNTVYLQMNNLKTEDTAVYYCARAGNFGSSYISYWAYWGQGTLVTVSSGGGGSGGGGSGGGGSQTVVTQEPSLTVSPGGTVTIT[in this place about 80 residues]FGSGTKLTVLGGGG[in this place human IgG1 Fc with R292C N297G V302C (EU numbers)]GGGGSGGGGSGGGGSGGGGSGGGGSGGGGS[in this place human IgG1 Fc with R292C N297G V302C (EU numbers)]
notes: as for B1
B4: CD20 82-A3 CC × CD22 97K-A8 CC × I2E × scFc (U2H) (bispecific antibody)
chain: EVQLVESGGGLVQPDRSLRLSCAASGFTFRDYAMHWVRQAPGKCLEWVSGIAWNSDSIGYADSVKGRFTISRDNAKNSLFLQMHSLRPEDTALYFCAKDTLYGSGSPRAFDIWGQGTMVTVSSGGGGSGGGGSGGGGSEIVLTQSPATLSVSPGERATLSCRASQSVNNNLAWYQQKPGQAPRLLIYGASTRATGIPARFSGSGSGTEFTLTISRLEPEDFAVYYCQQSNNWPITFGCGTRLEIKSGGGGSQLQLQESGPGLVKPSETLSLTCFVSGGSISNSDYFWGWIRQPPGKCLEWIGTIYYSGRTYYNPSLKSRVTISVDTSKNQFSLMLSSVTAVDTAVYYCARYQYGSFDYWGQGTLVTVSSGGGGSGGGGSGGGG[in this place about 100 residues]FGCGTKVEIRSGGGGSEVQLVESGGGLVQPGGSLKLSCAASGFTFNKYAINWVRQAPGKGLEWVARIRSKYNNYATYYADAVKDRFTISRDDSKNTVYLQMNNLKTEDTAVYYCARAGNFGSSYISYWAYWGQGTLVTVSSGGGGSGGGGSGGGGSQTVVTQEPSLTVSPGGTVTIT[in this place about 80 residues]FGSGTKLTVLGGGG[in this place human IgG1 Fc with R292C N297G V302C (EU numbers)]GGGGSGGGGSGGGGSGGGGSGGGGSGGGGS[in this place human IgG1 Fc with R292C N297G V302C (EU numbers)]
notes: as for B1

How the values were obtained:
human CD20 [1] = target: T1, human CD20; assay: cell-based or functional assay
human CD22 [2] = target: T2, human CD22; assay: cell-based or functional assay
cyno CD20 [3] = target: T3, cyno CD20; assay: cyno Kd divided by human Kd, cell-based affinity on CHO cells
Description: (§1) Cell-based affinity of CD20 CD22 dual targeting antigen-binding molecules was determined by nonlinear regression (one site—specific binding) analysis. CHO cells expressing human CD20, cyno CD20, human CD22 or cyno CD22 were incubated with decreasing concentrations of CD20 CD22 dual targeting antigen-binding molecules (up to 800 nM, step 1:2 or 1:3, 11 steps) for 16 h at 4° C. Bound CD20 CD22 dual targeting antigen-binding molecules were detected with Alexa Fluor 488-conjugated AffiniPure Fab Fragment Goat Anti-Human IgG (H+L). Fixed cells were stained with DRAQ5, Far-Red Fluorescent Live-Cell Permeant DNA Dye and signals were detected by fluorescence cytometry. Respective equilibrium dissociation constant (Kd) values were calculated with the one site specific binding evaluation tool of the GraphPad Prism software. Mean Kd values and affinity gaps were calculated with Microsoft Excel.
(§2) Cell-based affinities of CD20 CD22 dual targeting antigen-binding molecules on target-transfected CHO cells were determined by nonlinear regression (one site—specific binding) analysis. Mean Kd values were calculated from three independent measurements. Affinity gaps were determined by dividing the cyno Kd by the human Kd.

cyno CD22 [4] = target: T4, cyno CD22 (cyno); assay: as above
T4 construct: whole, on cells; also called cy CD22
Description: as §1, §2

cyno CD20 [5] = target: T3, cyno CD20; assay: flow cytometry on CHO cells expressing cyno CD20, one site-specific binding fit, mean of three
Description: as §1, §2

cyno CD22 [6] = target: T4, cyno CD22; assay: flow cytometry on CHO cells expressing cyno CD22, one site-specific binding fit, mean of three
Description: as §1, §2

human CD20 [7] = target: T1, human CD20; assay: flow cytometry on CHO cells expressing human CD20, one site-specific binding fit, mean of three
Description: as §1, §2

human CD22 [8] = target: T2, human CD22; assay: flow cytometry on CHO cells expressing human CD22, one site-specific binding fit, mean of three
Description: as §1, §2

Row | Binder | EC50, 48-hour FACS based cytotoxicity assay, Oci-Ly 1 CD22 k.o. #A1 (human CD20 [1]) [pM] | EC50, 48-hour FACS based cytotoxicity assay, Oci-Ly 1 CD20 k.o. #A5 (human CD22 [2]) [pM] | Affinity gap Kdcy/Kdhu CD20 (cyno CD20 [3]) | Affinity gap Kdcy/Kdhu CD22 (cyno CD22 [4]) | Kd (cyno CD20 [5]) [nM] | Kd (cyno CD22 [6]) [nM] | Kd (human CD20 [7]) [nM] | Kd (human CD22 [8]) [nM]
1 | B1 | 4.2 | 4.35 | 0.93 | 10.4 | 29.6 | 2.29 | 31.9 | 0.22
2 | B2 | 0.03 | 5.27 | 0.5 | 9 | 1.32 | 1.08 | 2.63 | 0.12
3 | B3 | 21.8 | 5.23 | 0.5 | 1.66 | 11.1 | 0.58 | 22.4 | 0.35
4 | B4 | 0.35 | 77.2 | 0.92 | 0.23 | 1.7 | 2.85 | 1.84 | 12.4
